This is one part of the list.

First the molecules themselves.
T1: UNK ZnF1-3 (human, UniProt Q9C0B0 31-174)
T1 sequence: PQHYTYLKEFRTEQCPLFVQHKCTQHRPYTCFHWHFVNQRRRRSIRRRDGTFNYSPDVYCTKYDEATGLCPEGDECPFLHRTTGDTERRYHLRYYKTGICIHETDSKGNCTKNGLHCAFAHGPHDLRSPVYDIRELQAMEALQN

B1: chrX:140365796:140365797:-_ENSMUSG00000031285_ENSMUST00000033642|mus_mus|mus_mus_mus_hu_False|58_78 (ssRNA)
RNA: GGGAGUUCUACAGUCCGACGAUCCUUCUCAUUACUCAGUGCCUGCAAGGUUCUGGUUCUGUAGAAGCUACAGUGGGCACUAUGAGUGGGGCUAGGCAACCCAUUCAUCCGGGAGCCUCGCAUGUUCCUGGAUGUCUUAUCUCUCAACAGAGGAUUGAGCAUCA
B2: 28289759_28289879_4143_CDS_ENSMUSG00000040651_ENSMUST00000022450|mouse|control|control (ssRNA)
RNA: GGGAGUUCUACAGUCCGACGAUCUGUGACAACCUCUAGAUUUAGAAUUGAUUCAUCAGACACAAUAAAGCCACCAGAUACAAAUAACUCGUUGUAUGUAUGAUUUUUAACAUCAUCCAGGCUAUCAACACCAGCAAAACUAACCAACAGAGGAUUGAGCAUCA
B3: chr15:5129413:5129414:+_ENSMUSG00000050697_ENSMUST00000051186|mus_mus|motif|central (ssRNA)
RNA: GGGAGUUCUACAGUCCGACGAUCAAAAUAGCAUGUUAAGAGGAAUAUGGAAAUAGUUCACAAUGUAACCAAAAAUGGAAACGGGUAGCUAUUUUGGAAGUUAAGGAGCCCAGAAAACAGCAUUAUCUAAUAAGGUCUAUGAGGCAACAGAGGAUUGAGCAUCA
B4: chr13:49821539:49821540:+_ENSMUSG00000037851_ENSMUST00000165316|mus_mus|FALSE|FALSE (ssRNA)
RNA: GGGAGUUCUACAGUCCGACGAUCUUCCCGAGCCAUGCCCUCAUCCACCAUUGACUGGUCAGGUGUGACAUCUAAGAGAACUAGAGCCUGAGCAUCAGAGUGUGCUUCAAACUGCGCGGUCCCUCCCGUGGCCUGGUCAAAGGUCAACAGAGGAUUGAGCAUCA
B5: 116324102_116324222_123_5pUTR_ENSMUSG00000028692_ENSMUST00000030455|mouse|control|control (ssRNA)
RNA: GGGAGUUCUACAGUCCGACGAUCGGAGGAGACCCCCACUGUCCUGCGAAGUAGAAGAGGGAGUAGAAGCCAAAGCUGGGACUUUGCACAUUCCUCCCCUGGGAACCUCUCACUCCACCACGAACGUCUGGAAGGGCCGGGGUCCAACAGAGGAUUGAGCAUCA
B6: chr14:31074762:31074763:+_ENSG00000092140_ENST00000206595|hu_mus|FALSE|FALSE (ssRNA)
RNA: GGGAGUUCUACAGUCCGACGAUCCCACACAUUGGCUUUGUUGAUGUAUAAUGUCUUAGUUUUCUUUUUAAUUUGGAAUCCUAACUCUAUCAAUAUUGUUGAAAUGUCUCUCCUAAAUUUGCUGCCUUGCCUCAGUAGUUCUUUCAACAGAGGAUUGAGCAUCA
B7: chr1:163112212:163112213:-_ENSG00000143248_ENST00000313961|hu_hu|hu_hu_hu_mus_False|78_108 (ssRNA)
RNA: GGGAGUUCUACAGUCCGACGAUCUUUAUUUAUCCAGAAGAGUGAGUUACAUACUAGAUAAAGUAUUGGAUACAAUAAUCAGGAAACAAACACUAUUGGUCCAGAAUUUAAAACUUUAUGAGCGAAGUGCUGGCACAGGACUUACAACAGAGGAUUGAGCAUCA
B8: 59717319_59717439_3773_3pUTR_ENSMUSG00000039585_ENSMUST00000128341|mouse|control|control (ssRNA)
RNA: GGGAGUUCUACAGUCCGACGAUCAAUGACAGCUGCAGCUCGUAAUUCCAAGUACCGUUGCCUCUCUAAGUGAGCACGCCAGGAUGCCUGAAGAAGGGAAGCUGCACUAGCCAUUAUGAAAGCAUCUUUCUCCACAGCCGCAUUCAACAGAGGAUUGAGCAUCA
B9: chr7:44244176:44244177:+_ENSG00000106636_ENST00000223369|hu_mus|hu_hu_hu_mus_False|88_98 (ssRNA)
RNA: GGGAGUUCUACAGUCCGACGAUCACUGUCGCUCCGGACGUAGACGUGGCACAGAUACUCUUGUUCUUUGACAGAAGCUCUGCUGCCUUUCCCCGAGCGUUCCACAAUCAGUUGACUUGUAAAGGUCAUGAAUUCCUGCACACUCAACAGAGGAUUGAGCAUCA
B10: chr4:57314706:57314707:+_ENSG00000128050_ENST00000264221|hu_mus|hu_hu_hu_mus_True|18_108 (ssRNA)
RNA: GGGAGUUCUACAGUCCGACGAUCCAGUAUUUCAAAUAUAGCUUGUGUGGCAUGACUCAUGAUGUCCACUUCAGUCUGCCCUAUAACAAGGCCAGCAAAACAGAAUUUUGCAGCAAUCAGCUGUUCCUCAGACCACUGUGGAUCCAACAGAGGAUUGAGCAUCA
B11: chr5:37680062:37680063:+_ENSMUSG00000029121_ENSMUST00000031004|mus_hu|mus_mus_mus_hu_False|28_28 (ssRNA)
RNA: GGGAGUUCUACAGUCCGACGAUCUUUGGGUGUAGCUGGUACCUCGUACACAGGACCGUCAUACAUGCCCCUGGAAACCCCUUGCAAUCCAAAAACCUUAUUCCUGAUCCUGACACGCUGGUACAGGUGCUCCGGGAACGCCUUCAACAGAGGAUUGAGCAUCA
B12: 31795390_31795510_3650_CDS_ENSG00000129493_ENST00000543095|human|control|control (ssRNA)
RNA: GGGAGUUCUACAGUCCGACGAUCUUUACAAAGCUUUAACCACAGGGAGAGUUUUUCCACUGCCAUAGAUGUAAGCAUAUAAUUUAAAGUCUCUUUGAUAUCAUGGCAUAAUCUCUCAUCUGUCUCCUUGUCUAGUAAGAUCAACAACAGAGGAUUGAGCAUCA
B13: chr12:7080122:7080123:+_ENSG00000126749_ENST00000261406|hu_hu|FALSE|FALSE (ssRNA)
RNA: GGGAGUUCUACAGUCCGACGAUCUCGGGGCCGCUUGGGUGGCAGAGCAUCCCAGUCCUGUGCCUGCUCCCCACCGCUUCGUUCACGAGGCUUGAAUCCAUCACUGGGCGCGGCCAUCUUGCAACAAUACCGGAAGUUGCGCUACAACAGAGGAUUGAGCAUCA
B14: chr15:44268054:44268055:+_ENSMUSG00000022338_ENSMUST00000060652|mus_hu|FALSE|FALSE (ssRNA)
RNA: GGGAGUUCUACAGUCCGACGAUCUCCAGUUAGUGAGGCAGAGGGCCCUGGAGGGAGCCCUAGGAAACACCAUUAUCUACAAGUCCCAGACAGCAAAAGGUACUCCACAAGAAACAGAAGGAACUUCCAGUGGUAGCAAAAGCACAACAGAGGAUUGAGCAUCA
B15: chr7:151048522:151048523:+_ENSG00000013374_ENST00000566856|hu_mus|hu_hu_hu_mus_True|28_108 (ssRNA)
RNA: GGGAGUUCUACAGUCCGACGAUCCUGCUUCUUAUUUAUUACGAUCUUGAUGUAAUUUUCUUGAAAUCCGAAAGUUUCAGCUAUUUGACACCUCAGGUCUCUACCAGUGAUGUGCAAGCGGGUCUCCAACAAGCUUUUCUUAUCCAACAGAGGAUUGAGCAUCA
B16: 153192111_153192231_421_CDS_ENSG00000157827_ENST00000288670|human|control|control (ssRNA)
RNA: GGGAGUUCUACAGUCCGACGAUCCACGAUGGCAAAUCGCUCCUCCAGUUCACCUGGCUCUGGCAUCGGCAGCUUCAAAGGCACGUUGUGCGCCCUGAAAUCGGUCUGCUGCGAAUCCAUGCUCCCUGCGUUGCCCAUGUCGGCCAACAGAGGAUUGAGCAUCA
B17: 85901298_85902443_295_CDS_ENSG00000165678_ENST00000372134|human|control|control (ssRNA)
RNA: GGGAGUUCUACAGUCCGACGAUCCCGGAUCCCAAUUCUUGUUUUGGUGGCAUAUUCCCUGCUAGGUGUUAACAGCCAUUGAUUCUUCGUGAUGGAAUUCUUCACAACAGGGGAGGCCUUGGUGAAAGCUGGGUGGAAAACCCUCAACAGAGGAUUGAGCAUCA
B18: chr6:155153589:155153590:+_ENSG00000213079_ENST00000417268|hu_mus|FALSE|FALSE (ssRNA)
RNA: GGGAGUUCUACAGUCCGACGAUCGGGAACAUUGUCUAUACUUGGUCUUCCAGGGGCCAGAAAAGGUCUUUCUGGCUGACUGAAAAGAUCUCCUGGAGGAAAAGGUCCGCGGGGUGGAGGAUGAAGAGCUGCAUCAAGUACCGACAACAGAGGAUUGAGCAUCA
B19: chr11:46765198:46765199:-_ENSG00000175216_ENST00000415402|hu_hu|FALSE|FALSE (ssRNA)
RNA: GGGAGUUCUACAGUCCGACGAUCACAGAAUACAGUGACCCUUCAGGGCGACAGAGAAGAGCUCACAAACUGAAAGGAAAACUAUUAAAGAGUUUCUAAUAUUAACUAUUAAAAAGCUAGGAAAGAUUAGGACAAUUUUACAAACAACAGAGGAUUGAGCAUCA
B20: chr6:40197388:40197389:+_ENSMUSG00000057716_ENSMUST00000061740|mus_mus|mus_mus_mus_hu_False|78_78 (ssRNA)
RNA: GGGAGUUCUACAGUCCGACGAUCGAGACACUGGGGUGGAUUUAUUCCACCUCUGUUUGCUAGCCUCCCACUAAGACUGUUAUUUUGGGAUUCAUGGCCUUGAAUAUCAAGAGGGAAAGGAAGAGGAUGGAAAGAGUCAAGAGUCAACAGAGGAUUGAGCAUCA
B21: chr2:32089778:32089779:+_ENSMUSG00000039262_ENSMUST00000036691|mus_hu|motif|central (ssRNA)
RNA: GGGAGUUCUACAGUCCGACGAUCUAAACAAGCUGCACAUUACACCUCUAGCCAUCGUCUGCCCUUUCAAAUAUCUGGUCGGCAUGGAAAGACAAAGAGGAAAGGCCAAAACAUAAACAAAAGGAAACAAAAACAAAACACAACCAACAGAGGAUUGAGCAUCA
B22: chr2:120842339:120842340:+_ENSMUSG00000023572_ENSMUST00000060455|mus_hu|FALSE|FALSE (ssRNA)
RNA: GGGAGUUCUACAGUCCGACGAUCUUGCUAAAUAUAGAUAGGCACUCCCUUUCAAUCCAGCAAGCAUUCUAGCUCCAUUUUAAAAGCAGGUAUCAGAGCCUGACCAUGACGAUGAGAGGGGAAGAGAGUACAAAUGAGCCUGAACAACAGAGGAUUGAGCAUCA

In the test the target is T1, UNK ZnF1-3. In words: nsRBNS (natural sequence RNA bind-n-seq); RBNS binding buffer (assumed for nsRBNS): 25 mM Tris pH 7.5, 150 mM KCl, 3 mM MgCl2, 0.01% Triton X-100, 500 ug/ml BSA, 20 U/ml SUPERase-In, 4 C; UNK is unkempt and MSI1 is Musashi-1; names of the RNAs are library labels; protein concentration not given here; high values mean tight binding.
For B1, the binding signal is 0.426 enrichment R.
The figure for B2 is 1.51 enrichment R; for B3 it is 1.7 enrichment R; for B4 it is 0.889 enrichment R.
Under B5 stands 1.33 enrichment R; under B6, 0.805 enrichment R.
Under B7 stands 1.21 enrichment R; under B8, 0.668 enrichment R.
For the molecule B9, the binding signal is 0.544 enrichment R.
The figure for B10 is 1.05 enrichment R.
For the molecule B11, the binding signal was found to be 0.837 enrichment R.
B12 registered a binding signal of 1.19 enrichment R.
Take B13: the binding signal came out at 0.761 enrichment R.
With B14, the binding signal came to 1.44 enrichment R.
Under B15 stands 0.676 enrichment R.
The figure for B16 is 0.758 enrichment R.
Consider B17, for which the binding signal was found to be 0.961 enrichment R.
The figure for B18 is 1.75 enrichment R; for B19 it is 2.77 enrichment R; for B20 it is 1.24 enrichment R.
The figure for B21 is 3.27 enrichment R; for B22 it is 1.54 enrichment R.
